# According to the supplement of paper PMC11417369:
# ± gives the standard deviation of the averaged measurements. The list shows a part of the results.
# System: PfAP2-LT AP2 domain (GST-tagged)
# Assay: gcPBM binding intensity (ln(normalized median fluorescence intensity)); higher = stronger DNA binding
# Procedure, shortened: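 Alexa488 anti-GST antibody, scanned at 488 nm, detected GST-tagged P. falciparum DNA-binding domains that had been expressed in E. coli and incubated for 1 h on an Agilent 4 × 180k array. The array carried primer-extended double-stranded 36-bp intergenic genomic probes and negative controls. Binding intensity is the highest Masliner-normalised natural-log median intensity across replicate spots of either orientation of each probe.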
row,Sequence,gcPBM binding intensity (ln)
1,GAAAATTCATAAAAATGTACTTATTATATTATTTAT [XGTACX_site2169],8.38 ± 0.47
2,GATATATAACTTTTAACACACAAAAAAAAAAAAAAT [CACACA_site7653],8.94 ± 0.57
3,TTATGAATATTGATGTATAAAAAAATATATATGTTA [XGTACX_negctrl_site390],8.35 ± 0.51
4,AAAGGTTTGCGTTGTGTGCACAAAATAAATATATAA,9.29 ± 0.38
5,AAAAAAATTTTAAAATGTACAAATTTTAATATATAT [XGTACX_site7628],8.47 ± 0.45
6,TTTTCAAAAATATACACACACATAAATATATGTATA [CACACA_site777],9.15 ± 0.23
7,TTTTTTATTTAAAGTAGTACTTTTTAGAAAACAAAA [XGTACX_site6759],7.9 ± 0.48
8,ATTCTAAATATGTATATACACACTTTTAATATTCAT [CACACA_site4118],9.04 ± 0.4
9,TTTATGAAACAGTGCACACATAAAAATAAATACATA [CACACA_site5631],9.12 ± 0.42
10,TTATTTTAAATTAACACATGCATAATATATGTATAT [TGCATGCA_site597],8.54 ± 0.35
11,ATATATACCTATAACACACACATATTTATATTTATA [CACACA_site7257],9.24 ± 0.24
12,TATAAATCAATATGTACACACATATACATGTTGAAT [CACACA_site7460],9.04 ± 0.41
13,TAATAAAAAAAGTGCACACACATAATATATATATAT [CACACA_site3340],9.47 ± 0.3
14,TTAGCAACTATTACTACACACATTTTTATATAATTT [CACACA_site1372],8.93 ± 0.45
15,CATATAATATATCAATGTACATATATATTTTATAAA [XGTACX_site5901],8.6 ± 0.37
16,ATTGTCAAAACACGCACACACATATACATAATAACA [CACACA_site1742],9.65 ± 0.37
17,ATTATATACATATATATTGTATATACTATACATATG [XGTACX_negctrl_site545],8.84 ± 0.49
18,TCCTTGTTTGGTTTTTTTTTTTCTTCTTTTTTTTTT [CACACA_negctrl_site1355],8.77 ± 0.6
19,ACACATACACATTAGGTGCACATAATTCAATATTAC [GTGCAC_site9862],9.26 ± 0.51
20,TTAAATGTTATATATTGTACATATAATATATGTATT [XGTACX_site1492],8.73 ± 0.46
21,TATGAAACGATATATGTGCACATGAGGGAATATAGA [GTGCAC_site9611],9.22 ± 0.42
22,AAAAAACATACATACACACACATAAATATATATATT [CACACA_site2699],9.59 ± 0.18

row,Sequence,gcPBM binding intensity (ln)
1,ATATATATATAAAGGAGTACATACATTAAAAAAAAA [XGTACX_site1095],8.86 ± 0.54
2,TCTTATTTAAAAATAGCACACATTATATATATATAT [CACACA_site8916],8.91 ± 0.53
3,TTTTGAGAATATATGGGTACAAATAAATAAAAATAT [XGTACX_site1933],8.59 ± 0.54
4,TTTTCTATTTAATTGGTGCACTGATATATACACATA [GTGCAC_site9533],8.88 ± 0.43
5,AGGTTAAAAATAAATACACACATTTGATGTCTGTAT [CACACA_site6596],9.07 ± 0.26
6,TTATGTTATATATACACACACAAAAGAAAAAAAAAA [CACACA_site2987],9.16 ± 0.38
7,ATATAACATATTAATAATATATTTATAATATGTTTA [GTGCAC_negctrl_site168],8.33 ± 0.41
8,TCTTATAACAAAAAAAAATAAAAAATAAAACTATAT [GTGCAC_negctrl_site11],8.46 ± 0.44
9,CATATAAATAGACACACACACACATATAAATAAATA [CACACA_site7156],10.1 ± 0.4
10,AAATTTAAATAATGTGCGCATCTTAATATATATAAG [GTGCAC_site9890],8.8 ± 0.44
11,AAATAATATTGAAAAGTGCATATTTTTGTTGATATA,8.59 ± 0.44
12,AAAAGGTGGAAAAATGCATGCAGGCTATTCTATATA [TGCATGCA_site1034],9.1 ± 0.38
13,AATTACATATAATACTGTACGCTAATAAGAAAAAAA [XGTACX_site7413],8.76 ± 0.47
14,TTCCACCAATATATATGTACTTATAATATATATATA [XGTACX_site8700],8.64 ± 0.42
15,AAAAAACACGGACACACACACATATACATACATACA [CACACA_site5470],9.98 ± 0.41
16,AATATAAATAATGTTAAACACACATACCGATATATA [CACACA_site8869],9.02 ± 0.45
17,ATTTATAGAGCTATATGTACATATATATATATTATT [XGTACX_site3704],9.02 ± 0.42
18,AACGCTTATTAGTTGTTGTATATGTGTTCACATATT [CACACA_negctrl_site379],8.96 ± 0.4
19,ATATAAATAAAGAAATATATATATATATATATATAT [GTGCAC_negctrl_site668],9.6 ± 0.099
20,ATATATATGTATATAACATGCAACATTTAATAATAA [TGCATGCA_site1018],8.95 ± 0.41
21,ATAAAAGATTTATACATACACACATATTATATTCAC [CACACA_site3714],9.02 ± 0.42
22,TTTTTTTTTTTTTTTTAACACACATATATATATTTT [CACACA_site8585],8.7 ± 0.47

row,Sequence,gcPBM binding intensity (ln)
1,GATCTATTGAGTGATACATGCAGGAAAATTAAAAAC [TGCATGCA_site729],8.8 ± 0.48
2,TATGTATGTATGTATGTATGCATGTCTAACACCTAA [TGCATGCA_site360],9.04 ± 0.26
3,TTTTTTTTTTTATGCTCACACATTAATTTTTATACA [CACACA_site4527],8.71 ± 0.49
4,TTTTTATTATAAGGTCGTACAATTGTAATTATTGTA [XGTACX_site1413],8.61 ± 0.42
5,AAAAAGAAAAAAGAAAGTACAAATATACACATTTTT [XGTACX_site3343],8.73 ± 0.46
6,TCATAGCTAGGATAACGTACAGAAAAGTGAAAAATT [XGTACX_site3322],8.99 ± 0.47
7,ACACATGTATTTGGTGCATGTTGTTAAAAAAATATT [TGCATGCA_site795],8.89 ± 0.3
8,TTTTTTTTTTGTTGTTGTACTCTTATATTTTTATAT [XGTACX_site6178],9.01 ± 0.52
9,ATTCTAGTAATATATGTATATTTATATATGTATGTG [XGTACX_negctrl_site419],8.86 ± 0.38
10,TTTAATTAAATATGTATATATATTCATGTATGTATA [GTGCAC_negctrl_site14],8.6 ± 0.38
11,CATATACAGAAACACACACACACATAAATAAATATA [CACACA_site1343],10 ± 0.36
12,AGTAGATATAAAAGGAGTACACATATATATATAAAT [XGTACX_site4375],9.12 ± 0.5
13,AAAAAAAAAAGACACACACACATATTTATTTATATA [CACACA_site6484],9.67 ± 0.4
14,AATATATAAGTGTTGTGTACTAAAGTATTTTCCTAT [XGTACX_site1622],8.8 ± 0.4
15,TTTCCGTATAATTTTGCACACGAATATAAATTTGAT [CACACA_site137],9 ± 0.4
16,ATAGTATCTGGTAGCTGTACGAGTCGTATAGTGCAG [XGTACX_site2542],8.88 ± 0.45
17,ATAGTTTTACACATTTGTACATAATTTACAACAAAA [XGTACX_site25],8.57 ± 0.41
18,TTTAATCAAATTAAAAGTACAGAATTGTTCATGTAG [XGTACX_site1229],8.53 ± 0.3
19,ATATATATATATTCCACACACACACTAATAAAAAAA [CACACA_site9214],9.65 ± 0.26
20,AAAAAATATTATATATGTACATAATATTTTTTTTTT [XGTACX_site5909],8.43 ± 0.42
21,TGTTTTTGTGATCATATGAAAAAATTACCTACAAGG [CACACA_negctrl_site279],8.45 ± 0.4
22,TATATATATATATATACATGCATATTTTTTATTTTT [TGCATGCA_site464],9.62 ± 0.13

row,Sequence,gcPBM binding intensity (ln)
1,TTTTTTATATATATTTGTACATATTGCATGTTCCCT [XGTACX_site7143],8.95 ± 0.63
2,TGTCTTATATATATTACACACTATATGAAAAAATAT [CACACA_site1487],8.66 ± 0.37
3,TATATTTATCTGATAACACACATAAATTAGACATTT [CACACA_site6887],8.62 ± 0.38
4,TAATTTAATAATTAGACACACATGTCTAAAATAAAA [CACACA_site2527],8.46 ± 0.6
5,TAAAGTATTACAACCACACACACACCGATATATTAT [CACACA_site9382],9.85 ± 0.15
6,AAAAGAAATTTGGGCACATGCGAATTTATAATTTAT [TGCATGCA_site960],8.86 ± 0.44
7,TTATTATATAAAATAAATAACAAAAAAAATAAAATA [GTGCAC_negctrl_site548],8.38 ± 0.46
8,ATTGTTTTATATAGAACACACATAAAAATCTATATG [CACACA_site6681],8.71 ± 0.44
9,CAACATTTATATTTTACACACATCATTTAAGCGCTT [CACACA_site992],9.23 ± 0.28
10,CCTATCCATACATATACACACATATCTATTTATATA [CACACA_site1669],9.04 ± 0.36
11,TTTGAAATAAATAATGCACACTCTACATATATACGT [CACACA_site2244],8.94 ± 0.42
12,AAATAAAATACAAGTTGTACTATAAGCTTTTTATAT [XGTACX_site8021],8.81 ± 0.37
13,AATATGGTTATATATATATATATATATATATATATT [GTGCAC_negctrl_site566],9.51 ± 0.15
14,AGAAATATATCTATTTGTCCGTATATTCATATTTAT [XGTACX_site8427],8.88 ± 0.46
15,ATAAAAATATTGTCTAGTACATATTTATAATAAAAA [XGTACX_site7523],8.37 ± 0.46
16,AGATTGGAACATTAAAGTACTTACTTTTTTTTTTTT [XGTACX_site8017],8.47 ± 0.4
17,GATTACTAGAAATGCACACACTGATAAAATAAGGAA [CACACA_site6131],9.41 ± 0.4
18,TATATATATGAGTATACACACCTGATAAAGGTATAT [CACACA_site5462],8.96 ± 0.35
19,TTAAACTTGAAACACACACACACACCGATATAAAAA [CACACA_site4578],10.06 ± 0.085
20,ATATATTTAAACAAAAGTACAAATCATAAATTCAAG [XGTACX_site3633],8.66 ± 0.42
21,TATATATTCTTTTAATGTACATATTGTATTATATCC [XGTACX_site4501],8.86 ± 0.52
22,TGACATAAAAAATATACACACTATAATATTTATACT [CACACA_site6776],8.83 ± 0.38
